# Reference: the supplement of paper PMC8728848
# The other results are listed elsewhere or left out.
# B1: Sebin1 (Coprinopsis cinerea), A8PEE3 (protein)
# chain: MTSPFYAHIHNVQDDNTWRFTLIFANRATADEWWRAISEAPANTSIAKSITRVTPQYYTHDVNIWNIWNFFADGNIKSISERFRGRLFIVLENDRGGRGITVIPPVPIVDHVSGNWFYIRSKTAPHLFWYYDERRSSIYASKEKRTRFKISIRNPSSQTPKNAIMINTDDVTIHIKENLYVGVDNNLGHIIPTRAYRTFKFGELESGAIAGFDVVENIEERCSSTFDGASLSISGPDSSSPGEPWELV
# Key:
# Assay in all cases: glycan array binding signal (z-score within array); higher = stronger binding
# Conditions in all cases: glycan notation: IUPAC condensed, linker removed
# [1] = biological target: Neu5Ac(a2-6)GlcNAc(b1-4)GlcNAc
# In short: (§1)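 The Consortium for Functional Glycomics database supplied 3228 glycan arrays, of which those lacking an available protein sequence were dropped. The binding signal, a within-array Z-score, was averaged across arrays of the same protein sequence and across linkers. Negative scores can be read as non-binding.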
# [2] = biological target: Neu5Ac(a2-6)GlcNAc(b1-4)GlcNAc(b1-4)GlcNAc
# In short: as §1
# Neu5Ac(a2-8)Neu5Ac = biological target: Neu5Ac(a2-8)Neu5Ac
# In short: as §1
# [3] = biological target: Neu5Ac(a2-8)Neu5Ac(a2-3)Gal(b1-3)GalNAc(b1-4)[Neu5Ac(a2-3)]Gal(b1-4)Glc
# In short: as §1
# [4] = biological target: Neu5Ac(a2-8)Neu5Ac(a2-3)Gal(b1-3)GalNAc(b1-4)[Neu5Ac(a2-8)Neu5Ac(a2-3)]Gal(b1-4)Glc
# In short: as §1
# [5] = biological target: Neu5Ac(a2-8)Neu5Ac(a2-3)Gal(b1-4)Glc
# In short: as §1
# [6] = biological target: Neu5Ac(a2-8)Neu5Ac(a2-3)Gal(b1-4)GlcNAc
# In short: as §1
# [7] = biological target: Neu5Ac(a2-8)Neu5Ac(a2-3)[Gal(b1-3)GalNAc(b1-4)]Gal(b1-4)Glc
# In short: as §1
# [8] = biological target: Neu5Ac(a2-8)Neu5Ac(a2-3)[GalNAc(b1-4)]Gal(b1-4)Glc
# In short: as §1
# [9] = biological target: Neu5Ac(a2-8)Neu5Ac(a2-8)Neu5Ac
# In short: as §1
# [10] = biological target: Neu5Ac(a2-8)Neu5Ac(a2-8)Neu5Ac(a2-3)Gal(b1-4)Glc
# In short: as §1
# [11] = biological target: Neu5Ac(a2-8)Neu5Ac(a2-8)Neu5Ac(a2-3)[Gal(b1-3)GalNAc(b1-4)]Gal(b1-4)Glc
# In short: as §1
# [12] = biological target: Neu5Ac(a2-8)Neu5Ac(a2-8)Neu5Ac(a2-3)[GalNAc(b1-4)]Gal(b1-4)Glc
# In short: as §1
# [13] = biological target: Neu5Ac(a2-8)Neu5Ac(a2-8)Neu5Ac(a2-8)Neu5Ac(a2-3)[GalNAc(b1-4)]Gal(b1-4)Glc
# In short: as §1
# [14] = biological target: Neu5Ac(a2-8)Neu5Gc(a2-3)Gal(b1-4)GlcNAc
# In short: as §1
# [15] = biological target: Neu5Ac(b2-6)Gal(b1-4)GlcNAc
# In short: as §1
# Neu5Ac(b2-6)GalNAc = biological target: Neu5Ac(b2-6)GalNAc
# In short: as §1
# [16] = biological target: Neu5Ac9Ac(a2-3)Gal(b1-3)GlcNAc
# In short: as §1
# [17] = biological target: Neu5Ac9Ac(a2-3)Gal(b1-4)GlcNAc
# In short: as §1
# [18] = biological target: Neu5Ac9Ac(a2-6)Gal(b1-4)GlcNAc
# In short: as §1
# [19] = biological target: Neu5Gc(a2-3)Gal(b1-3)GlcNAc
# In short: as §1
# [20] = biological target: Neu5Gc(a2-3)Gal(b1-3)[Fuc(a1-4)]GlcNAc
# In short: as §1
# Neu5Gc(a2-3)Gal(b1-4)Glc = biological target: Neu5Gc(a2-3)Gal(b1-4)Glc
# In short: as §1
# [21] = biological target: Neu5Gc(a2-3)Gal(b1-4)GlcNAc
# In short: as §1
# [22] = biological target: Neu5Gc(a2-3)Gal(b1-4)GlcNAc(b1-3)Gal(b1-4)GlcNAc(b1-2)Man(a1-3)[Neu5Gc(a2-3)Gal(b1-4)GlcNAc(b1-3)Gal(b1-4)GlcNAc(b1-2)Man(a1-6)]Man(b1-4)GlcNAc(b1-4)GlcNAc
# In short: as §1
# [23] = biological target: Neu5Gc(a2-3)Gal(b1-4)[Fuc(a1-3)]GlcNAc
# In short: as §1
# [24] = biological target: Neu5Gc(a2-6)Gal(b1-4)GlcNAc
# In short: as §1
# Neu5Gc(a2-6)GalNAc = biological target: Neu5Gc(a2-6)GalNAc
# In short: as §1
# [25] = biological target: Neu5Gc(a2-8)Neu5Ac(a2-3)Gal(b1-4)GlcNAc
# In short: as §1
# [26] = biological target: Neu5Gc(a2-8)Neu5Gc(a2-3)Gal(b1-4)GlcNAc
# In short: as §1
# [27] = biological target: Neu5Gc(a2-8)Neu5Gc(a2-3)Gal(b1-4)GlcNAc(b1-3)Gal(b1-4)GlcNAc
# In short: as §1
# [28] = biological target: Neu5Gc(a2-8)Neu5Gc(a2-6)Gal(b1-4)GlcNAc
# In short: as §1
# [29] = biological target: Neu5Gc(b2-6)Gal(b1-4)GlcNAc
# In short: as §1
binder,measurement,setting,value
B1,glycan array binding signal (z-score),[1],-0.869
same,glycan array binding signal (z-score),[2],-0.656
same,glycan array binding signal (z-score),Neu5Ac(a2-8)Neu5Ac,-0.323
same,glycan array binding signal (z-score),[3],-0.401
same,glycan array binding signal (z-score),[4],-0.152
same,glycan array binding signal (z-score),[5],-0.368
same,glycan array binding signal (z-score),[6],-0.406
same,glycan array binding signal (z-score),[7],-0.038
same,glycan array binding signal (z-score),[8],-0.445
same,glycan array binding signal (z-score),[9],-0.546
same,glycan array binding signal (z-score),[10],-0.293
same,glycan array binding signal (z-score),[11],-0.13
same,glycan array binding signal (z-score),[12],-0.609
same,glycan array binding signal (z-score),[13],0.415
same,glycan array binding signal (z-score),[14],-0.427
same,glycan array binding signal (z-score),[15],0.009
same,glycan array binding signal (z-score),Neu5Ac(b2-6)GalNAc,-0.55
same,glycan array binding signal (z-score),[16],0.165
same,glycan array binding signal (z-score),[17],-0.473
same,glycan array binding signal (z-score),[18],-0.635
same,glycan array binding signal (z-score),[19],-0.447
same,glycan array binding signal (z-score),[20],-0.26
same,glycan array binding signal (z-score),Neu5Gc(a2-3)Gal(b1-4)Glc,-0.427
same,glycan array binding signal (z-score),[21],-0.074
same,glycan array binding signal (z-score),[22],0.166
same,glycan array binding signal (z-score),[23],-0.42
same,glycan array binding signal (z-score),[24],-0.391
same,glycan array binding signal (z-score),Neu5Gc(a2-6)GalNAc,-0.54
same,glycan array binding signal (z-score),[25],0.133
same,glycan array binding signal (z-score),[26],-0.582
same,glycan array binding signal (z-score),[27],0.124
same,glycan array binding signal (z-score),[28],-0.823
same,glycan array binding signal (z-score),[29],0.6
